Test: Secondary structure by circular dichroism (CD)
Assay type: physicochemical
Settings: protein isolated from E. coli lysate
Description: The CD spectra indicated predominantly helical structures with a helical secondary structure content of ˜48% (estimations based on the molar ellipticity over the range 205 to 260 nm). The comparison of the helical content with that of the native human MUR expressed in yeast system in the presence of high concentration of detergent (0.1% SDS) is presented in Table 1.

B1: BAD4: engineered more water soluble human β2 adrenergic receptor (protein)
chain: MAHHHHHHVMGQPGNGSAFLLAPNGSHAPDHDVTQQRDEEWVKGTGRQMSEIVKKIVEGNKLVITAIQKFERLQTVTNYFITSLAEADLKMGEAVVPYGAAHILKKMWTYGNRWCEYWTSIDVLTVTASIETLDVIAEDRYKAITSPFKYQSELTKNKAREEIKKVWERSGKTSFDPIQKHKYRATHQEAINCYANETCCDFFTNQDYAKKSSKQSFYEPLQKMKDVYSRVEQEAKRQLQKIDKSEGRFHVQNLSQVEQDGRTGHGLRRSSKESLKEHKALKTLGEIMGTFTRQWDPFFKVNEEHVKQDNKIRKEEYIKLNWEGYKNSGENPKIYERSPDFRIAFQELRSLRRSSLKAYGNGYSSNGNTGEQSGYHVEQEKENKLLAEDLPGTEDFVGHQGTVPSDNIDSPGRNASTNDSLL
For B1, which “helical structural content by CD spectroscopy (in words)” value is on record?
The value was “high alpha-helical content”.

— US9670264B2, “Water soluble G-protein coupled receptor” (The Trustees of The University of Pennsylvania, priority 2013, dated 2017)
